34 variants from the RNAGym collection of RNA variant scans (doi:10.1093/nar/gkz1192) can be followed below.

The labels stand for the following.
B1: CPEB3 Ribozyme (parent)
chain: UAACAGGGGGCCACAGCAGAAGCGUUCACGUCGCAGCCCCUGUCAGAUUCUGGUGAAUCUGCGAAUUCUGCUGUAUAUCUC

Read counts are not given, so values of variants with three or more changes are uncertain.

This data set covers variants of B1. The experiment in a line: self-cleavage, relative activity (ratio to wild type); higher = more cleavage; in vitro, sequencing. In outline: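 After error-prone PCR and barcoding, CPEB3 ribozyme mutant libraries were transcribed with T7 RNA polymerase at 37°C for 5 hours, then given 15 min with DNase I before an EDTA stop, and they cleaved during both steps. Reverse transcription with template switching preceded Illumina sequencing. Relative activity divides a variant's cleaved/total read fraction by the unmutated ribozyme's. At least 5 reads were required per variant, and three batches were averaged.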
As for UAACAGGGGGCCACAGCAGAAGCGUCCACGUCGCAGCCCCGGUCGGGUUCAGGUGAAUCUGCGAAUUCUGCUGUAUACCUC [U26C U41G A45G A47G U51A U78C], the self-cleavage came out at 0.07.

For the variant UAACAGGGGGCCACAGCAGAAGCGUCCACAUCGCAGCCCCUGUCAGAUUCUGGUGAAUCUGCGAAUUCUGCUGUAUAUCGC [U26C G30A U80G], the self-cleavage was 0.06.

With UAACAGGGGGCCACAGCAGAAGCGUCCACGUCGCAGCCCCUGUCAGAUUCUGAUGAAUCUGCGAAUUCUGCUGAAUAUCUC [U26C G53A U74A], the self-cleavage was 0.83.

On to UAACAGGGGGCCACAGCAGAAGCGUCCACGCCGCAGCCCCCGUCAGAUUCUGGUGAAUCUGCGAGUUCUGCUGUAUAUCUC [U26C U31C U41C A65G], for which the self-cleavage came to 0.09.

Take UAACAGGGGGCCACAGCAGAAGCGUCCACGUCGCAGCCCCCGUCAGAUUCUGGUGAAUCUGCGGAUUCUGCUGUAUGUCUC [U26C U41C A64G A77G]: the self-cleavage was 0.43.

Take UAACAGGGGGCCACAGCAGAAGCGUCCACGUCGCAGCCCCAGUCAGAUUCUGGUGUAUCUGCGAAUUCUGCUGUAUAUCUC [U26C U41A A56U]: the self-cleavage amounted to 0.15.

Consider UAACAGGGGGCCACAGCAGAAGCGUCCACGCCGCAGCCCCAGUCAGAUUCUGGUGGAUCUGCGAAUUCUGCUGUAUAUCUC [U26C U31C U41A A56G], for which the self-cleavage was 0.19.

In the case of UAACAGGGGGCCACAGCAGAAGCGUCCACGUCGCAGCCCCCGUCUGAUUCUGGUGAAUCUGCGAAUCCUGCUGUAUAUCUC [U26C U41C A45U U67C], the self-cleavage was 0.16.

As to UAACAGGGGGCCACAGCAGAAGCGUCCACGUCGCAGCCCCCGUCAGAUUCUGGUGAAUCUGCGAAUUCUGCUGUUUAUCUC [U26C U41C A75U], the self-cleavage was 0.4.

Take UAACAGGGGGCCACAGCAGAAGCGUCCACGGCGCAGCCCCUGUCAGGUUCUGGUGAAUCUGCGGAUUCUGCUGUAUACCUC [U26C U31G A47G A64G U78C]: the self-cleavage was determined as 0.26.

Consider UAACAGGGGGCCACAGCAGAAGCGUCCACGCCGCAGCCCCUGUCAGAUUCUGGUGAAUCUGCGUAUUCUGCUGUAUACCUC [U26C U31C A64U U78C], for which the self-cleavage was 0.08.

As to UAACAGGGGGCCACAGCAGAAGCGUCCACGUCGCAGCCCCUGACGGAUUCUGGUGAAUCUGCGAAUUCCGCUGUAUAUCUC [U26C U43A A45G U69C], the self-cleavage was 0.06.

Take UAACAGGGGGCCACAGCAGAAGCGUCCACGUCGCAGCCCCUGUCAGAUUCUGGUGAAUCUGCAAAUCCUGCUGAAUACCUC [U26C G63A U67C U74A U78C]: the self-cleavage was determined as 0.11.

Regarding UAACAGGGGGCCACAGCAGAAGCGUCCACGACGCGGCCCCUGCUAGAUUCUGGUGAAUCUGCGAAUUCUGAGGUAUAUCUC [U26C U31A A35G U43C C44U C71A U72G], the self-cleavage worked out at 0.06.

For the variant UAACAGGGGGCCACAGCAGAAGCGUCCACGACGCAGCCCCUGCCAGAUUCUGGUGAAUCUGCGAAUUCUGCUGUAUAUCUC [U26C U31A U43C], the self-cleavage came to 0.32.

On to UAACAGGGGGCCACAGCAGAAGCGUCCACGUCGCAACCCCUGUCAGAUUCUGGUGGAUCCGCGAAUUCUGCUGUAUAUCUC [U26C G36A A56G U60C], for which the self-cleavage is 0.08.

For UAACAGGGGGCCACAGCAGAAGCGUCCACGACGCAGCCCCUGUCAGAUUCUGGUGGAUCUGCGCAUUCUGCUGUAUAUCUC [U26C U31A A56G A64C], the self-cleavage was determined as 0.

Turning to UAACAGGGGGCCACAGCAGAAGCGUCCACGUCGCAGCCCCUGUCAGAUUCUGACGAAUCUGCGAAUUCUGACGUAUAUCUC [U26C G53A U54C C71A U72C], the self-cleavage is 0.13.

As for UAACAGGGGGCCACAGCAGAAGCGUCCACGUCGCAGCCCCUGUCAGAUUCUGGUGAAUAUGCGGAUUCUGCUGUAUAUCUC [U26C C59A A64G], the self-cleavage worked out at 0.08.

For UAACAGGGGGCCACAGCAGAAGCGUCCACGUCGCAGCCCCAGUCAGAUUCUGGAGAAUCUGCGAAUUCUGCUGUAUAUCUC [U26C U41A U54A], the self-cleavage turned out to be 0.19.

Consider UAACAGGGGGCCACAGCAGAAGCGUCCACGUCGCAGCCCCAGUCAGAUUCUGGUGAAUCUGCGAGUCCUGCUGUAUAUCUU [U26C U41A A65G U67C C81U], for which the self-cleavage is 0.25.

Consider UAACAGGGGGCCACAGCAGAAGCGUCCACGUCGCAGCCCCUGUCAGAUUAUGGUGAAUCUGCGAAUCCUGCUGUAUAUCUC [U26C C50A U67C], for which the self-cleavage stood at 0.36.

For the variant UAACAGGGGGCCACAGCAGAAGCGUCCACGUCGCAGCCCCCGACAGAUUCUGGCGAAUCUGCGAAAUCUGCUGUAUAUCUC [U26C U41C U43A U54C U66A], the self-cleavage turned out to be 0.06.

Turning to UAACAGGGGGCCACAGCAGAAGCGUCCACGUCGCAGCCCCAGUCAGAUUCUGGUGAAUCUGCGAAUUCUGCAGUAUAACUC [U26C U41A U72A U78A], the self-cleavage was determined as 0.08.

On to UAACAGGGGGCCACAGCAGAAGCGUCCACGUCGCAGCCCCAGUCAGAUUCUGGUGAAUCUGCGAAUACUGCUGUAAAUCUC [U26C U41A U67A U76A], for which the self-cleavage worked out at 0.13.

On to UAACAGGGGGCCACAGCAGAAGCGUCCACGACGCAGCCCCUGCCAGAUUCUGGUGAAUCUGCGGAUUCUGCUGUAUAUCUC [U26C U31A U43C A64G], for which the self-cleavage came out at 0.14.

With UAACAGGGGGCCACAGCAGAAGCGUCCACGUCGCAGCCCCUAUCAGAUUCUGGUGAACCUGCGAAUUCUGCUGUAUAUCUC [U26C G42A U58C], the self-cleavage was found to be 0.17.

UAACAGGGGGCCACAGCAGAAGCGUCCACGACGCAGCCCCUGUCAGAUCCUGGUGGAUCUGCGAAUUCUGCUGUAUAUCUC [U26C U31A U49C A56G]: the self-cleavage stood at 0.14.

Consider UAACAGGGGGCCACAGCAGAAGCGUCCACGUCGCAGCCCCUGUCAGAUUCUGGUCAAUCUGCGGAUUCUGCUGUAUAUCUC [U26C G55C A64G], for which the self-cleavage is 0.34.

Take UAACAGGGGGCCACAGCAGAAGCGUCCACGACGCAGCCCCUGUCAGAUUCUGGUGAAUCUGCGUAUUCUGCUGUAUAUCAC [U26C U31A A64U U80A]: the self-cleavage was determined as 0.15.

UAACAGGGGGCCACAGCAGAAGCGUCCACGUCUCAGCCCCUGUCAUAUUCUGGUGAAUCUGCGAAUUCUGCCGUAUAUCUC [U26C G33U G46U U72C]: the self-cleavage was 0.12.

For the variant UAACAGGGGGCCACAGCAGAAGCGUCCACGUCGCAGCCCCUGUCAGAUUCUGGUGAAUCUGCGAAUUCUGGUGUACAUCUC [U26C C71G U76C], the self-cleavage is 0.13.

For the variant UAACAGGGGGCCACAGCAGAAGCGUCCACGUCGCAACCCCUGUCAGAUUCUGGCGAAUCUGCGAAUUCUGCUGUAUAUCUG [U26C G36A U54C C81G], the self-cleavage was determined as 0.18.

For UAACAGGGGGCCACAGCAGAAGCGUCCACGUCGCAGCCCCAGUCAGAUUCAGGUGAAUCUGCGAAUUCUGCUGUAUAUCUC [U26C U41A U51A], the self-cleavage stood at 0.41.
